Laboratory results published in the supplement of paper PMC4967469.
pIC50: −log10 of the molar value. By IC50 is meant the dose at which the fit gives 50% viability; a fit beyond the top or the lowest dose is shown as a bound at that dose. For AUC the same curve is integrated over the 256-fold range of doses and scaled to a fraction; it is 1 without any effect and falls as sensitivity rises. For part of these data: Any top dose called inferred is not printed in the source and was worked back from the curve model. For part of these data: Drugs with an entry number were screened twice under separate entries, and the two screens often disagree.

Tests used:
Experiment in all cases: Viability of human cancer cell lines after 72 h of drug (GDSC screen)
ABT-869 = compound: Cc1ccc(F)c(NC(=O)Nc2ccc(-c3cccc4[nH]nc(N)c34)cc2)c1 [ABT-869]; settings: top dose 1.024 µM; top dose inferred
Protocol: (§1)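 Human cancer cell lines in 384-well plates, medium with 10% serum, drug for 72 h over a 256-fold dose range (nine 2-fold or five 4-fold steps up to the top dose). Adherent lines were fixed and stained with the nucleic acid dye Syto60, suspension lines read with resazurin; signal relative to control wells, capped at 0 and 100%. One two-parameter sigmoid per drug and line, fitted in a mixed model over all curves with the slope shared within a line.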

Thapsigargin = compound: C/C=C(/C)C(=O)O[C@H]1C(C)=C2[C@H]([C@@H]1OC(=O)CCCCCCC)[C@@](C)(OC(C)=O)C[C@H](OC(=O)CCC)[C@@]1(O)[C@H]2OC(=O)[C@@]1(C)O [Thapsigargin]; settings: top dose 0.512 µM; top dose inferred
Protocol: as §1

CHIR-99021 = compound: Cc1cnc(-c2cnc(NCCNc3ccc(C#N)cn3)nc2-c2ccc(Cl)cc2Cl)[nH]1 [CHIR-99021]
Protocol: as §1

Zibotentan = compound: COc1nc(C)cnc1NS(=O)(=O)c1cccnc1-c1ccc(-c2nnco2)cc1 [Zibotentan]; settings: top dose 20 µM; top dose inferred
Protocol: as §1

KU-55933 = compound: O=c1cc(-c2cccc3c2Sc2ccccc2S3)oc(N2CCOCC2)c1 [KU-55933]; settings: top dose 10 µM
Protocol: as §1

GSK269962A = compound: CCn1c(-c2nonc2N)nc2cnc(Oc3cccc(NC(=O)c4ccc(OCCN5CCOCC5)cc4)c3)cc21 [GSK269962A]; settings: top dose inferred
Protocol: as §1

CP466722 = compound: COc1cc2ncnc(-n3nc(-c4ccccn4)nc3N)c2cc1OC [CP466722]; settings: top dose 16 µM; top dose inferred
Protocol: as §1

MPS-1-IN-1 = compound: COc1cc(N2CCC(O)CC2)ccc1Nc1cc(Nc2ccccc2S(=O)(=O)C(C)C)c2cc[nH]c2n1 [MPS-1-IN-1]; settings: top dose 20 µM; top dose inferred
Protocol: as §1

(5Z)-7-Oxozeaenol = compound: COc1cc(O)c2c(c1)/C=C/C[C@H](O)[C@H](O)C(=O)/C=C\C[C@H](C)OC2=O [(5Z)-7-Oxozeaenol]; settings: top dose 10 µM; top dose inferred
Protocol: as §1

Cytarabine = compound: Nc1ccn([C@@H]2O[C@H](CO)[C@@H](O)[C@@H]2O)c(=O)n1 [Cytarabine]; settings: top dose 2 µM
Protocol: as §1

ABT-888 = compound: C[C@]1(c2nc3c(C(N)=O)cccc3[nH]2)CCCN1 [ABT-888]; settings: top dose 5 µM; top dose inferred
Protocol: as §1

QL-X-138 = compound: C=CC(=O)Nc1cc(-n2c(=O)ccc3cnc4ccc(-c5cn[nH]c5)cc4c32)ccc1C [QL-X-138]; settings: top dose 10.24 µM; top dose inferred
Protocol: as §1

[1] = top dose 2.56 µM, screen: GDSC drug entry 154
[2] = top dose 10 µM, screen: GDSC drug entry 1241, top dose inferred
[3] = top dose 5 µM, screen: GDSC drug entry 1192
[4] = top dose 2.5 µM, screen: GDSC drug entry 127

Cell Line	AUC (ABT-869)	pIC50 (ABT-869)	AUC (Thapsigargin)	pIC50 (Thapsigargin)	AUC (CHIR-99021; [1])	pIC50 (CHIR-99021; [1])	AUC (CHIR-99021; [2])	pIC50 (CHIR-99021; [2])	AUC (Zibotentan)	pIC50 (Zibotentan)	AUC (KU-55933)	pIC50 (KU-55933)	AUC (GSK269962A; [3])	pIC50 (GSK269962A; [3])	AUC (CP466722)	pIC50 (CP466722)	AUC (MPS-1-IN-1)	pIC50 (MPS-1-IN-1)	AUC ((5Z)-7-Oxozeaenol)	pIC50 ((5Z)-7-Oxozeaenol)	AUC (Cytarabine)	pIC50 (Cytarabine)	AUC (ABT-888)	pIC50 (ABT-888)	AUC (QL-X-138)	pIC50 (QL-X-138)	AUC (GSK269962A; [4])	pIC50 (GSK269962A; [4])
HCC38 (breast, adherent)	0.986	< 5.99	0.266	8.19	0.985	< 5.59	0.941	< 5.00	0.985	< 4.70	0.957	< 5.00	0.948	< 5.30	0.842	4.90	0.985	< 4.70	0.871	< 5.00	0.834	5.84	0.986	< 5.30	0.623	5.84		
HCC1419 (breast, adherent)	0.974	< 5.99	0.869	< 6.29	0.98	< 5.59	0.962	< 5.00	0.98	< 4.70	0.979	< 5.00	0.968	< 5.30	0.808	4.89	0.979	< 4.70	0.9	< 5.00	0.832	< 5.70	0.961	< 5.30	0.655	5.68		
HCC1428 (breast, adherent)	0.981	< 5.99	0.287	8.13	0.983	< 5.59	0.977	< 5.00	0.986	< 4.70	0.966	< 5.00	0.986	< 5.30	0.847	4.87	0.987	< 4.70	0.884	< 5.00	0.945	< 5.70	0.987	< 5.30	0.864	< 4.99		
HCC1500 (breast, adherent)	0.974	< 5.99	0.256	8.21	0.985	< 5.59	0.987	< 5.00	0.982	< 4.70	0.967	< 5.00	0.82	5.52	0.626	5.65	0.984	< 4.70	0.859	5.05	0.988	< 5.70	0.982	< 5.30	0.591	5.94	0.956	< 5.60
HCC1569 (breast, adherent)	0.968	< 5.99	0.259	8.29	0.846	< 5.59	0.925	< 5.00	0.975	< 4.70	0.909	< 5.00	0.935	< 5.30	0.69	5.39	0.969	< 4.70	0.783	5.24	0.937	< 5.70	0.98	< 5.30	0.701	5.54		
HCC1954 (breast, adherent)	0.964	< 5.99	0.389	7.82	0.984	< 5.59	0.959	< 5.00	0.984	< 4.70	0.984	< 5.00	0.962	< 5.30	0.758	5.19	0.984	< 4.70	0.772	5.35	0.959	< 5.70	0.984	< 5.30	0.504	6.18		
HCC-15 (lung squamous cell carcinoma, adherent)	0.975	< 5.99	0.318	8.07	0.982	< 5.59	0.975	< 5.00	0.982	< 4.70	0.931	< 5.00	0.922	< 5.30	0.917	< 4.80	0.964	< 4.70	0.75	5.39	0.927	< 5.70	0.958	< 5.30	0.86	< 4.99		
HCC-56 (large intestine, adherent)	0.984	< 5.99	0.468	7.58	0.987	< 5.59	0.986	< 5.00	0.983	< 4.70	0.969	< 5.00	0.905	< 5.30	0.908	< 4.80	0.876	< 4.70	0.704	5.62	0.913	< 5.70	0.987	< 5.30	0.976	< 4.99		
HCC-78 (lung adenocarcinoma, adherent)	0.977	< 5.99	0.659	7.02	0.983	< 5.59	0.884	< 5.00	0.981	< 4.70	0.941	< 5.00	0.968	< 5.30	0.809	5.00	0.927	< 4.70	0.844	5.04	0.77	6.05	0.978	< 5.30	0.67	5.68		
HDQ-P1 (breast, adherent)	0.977	< 5.99	0.158	8.66	0.956	< 5.59	0.924	< 5.00	0.984	< 4.70	0.975	< 5.00	0.963	< 5.30	0.826	4.91	0.931	< 4.70	0.632	5.81	0.883	< 5.70	0.985	< 5.30	0.889	< 4.99		
HEC-1 (endometrium, adherent)	0.986	< 5.99	0.357	7.89	0.98	< 5.59	0.974	< 5.00	0.987	< 4.70	0.966	< 5.00	0.87	5.36	0.983	< 4.80	0.988	< 4.70	0.742	5.52	0.865	5.78	0.923	< 5.30	0.935	< 4.99		
HGC-27 (stomach, adherent)	0.99	< 5.99	0.036	> 8.70	0.99	< 5.59	0.964	< 5.00	0.99	< 4.70	0.987	< 5.00	0.777	5.77	0.843	5.05	0.807	5.07	0.514	6.17	0.683	6.43	0.976	< 5.30	0.585	5.98		
HN (head and neck, adherent)	0.978	< 5.99	0.954	< 6.29	0.988	< 5.59	0.956	< 5.00	0.989	< 4.70	0.979	< 5.00	0.57	6.32	0.983	< 4.80	0.989	< 4.70	0.495	6.22	0.577	6.70	0.981	< 5.30	0.937	< 4.99		
HOS (osteosarcoma, adherent)	0.987	< 5.99	0.089	> 8.70	0.992	< 5.59	0.955	< 5.00	0.992	< 4.70	0.954	< 5.00	0.608	6.23	0.952	< 4.80	0.992	< 4.70	0.654	5.81	0.726	6.32	0.992	< 5.30	0.989	< 4.99		
HSC-2 (head and neck, adherent)	0.985	< 5.99	0.19	8.38	0.988	< 5.59	0.96	< 5.00	0.988	< 4.70	0.975	< 5.00	0.981	< 5.30	0.941	< 4.80	0.979	< 4.70	0.786	5.40	0.84	5.91	0.989	< 5.30	0.892	< 4.99		
HT55 (large intestine, adherent)	0.99	< 5.99	0.854	6.40	0.99	< 5.59	0.989	< 5.00	0.99	< 4.70	0.99	< 5.00	0.979	< 5.30	0.99	< 4.80	0.973	< 4.70	0.645	5.80	0.826	5.92	0.99	< 5.30	0.99	< 4.99		
HT-3 (cervix, adherent)	0.977	< 5.99	0.432	7.68	0.918	< 5.59	0.946	< 5.00	0.987	< 4.70	0.963	< 5.00	0.976	< 5.30	0.898	< 4.80	0.93	< 4.70	0.772	5.41	0.752	6.17	0.987	< 5.30	0.777	5.38		
HT-115 (large intestine, adherent)	0.991	< 5.99	0.879	6.35	0.991	< 5.59	0.949	< 5.00	0.985	< 4.70	0.987	< 5.00	0.794	5.68	0.945	< 4.80	0.971	< 4.70	0.487	6.24	0.856	5.86	0.991	< 5.30	0.988	< 4.99		
HT-1376 (bladder, adherent)	0.983	< 5.99	0.327	8.02	0.968	< 5.59	0.978	< 5.00	0.985	< 4.70	0.919	< 5.00	0.92	< 5.30	0.985	< 4.80	0.985	< 4.70	0.754	5.41	0.788	5.98	0.984	< 5.30	0.984	< 4.99		
Hs633T (fibrosarcoma, adherent)	0.992	< 5.99	0.162	8.41	0.94	< 5.59	0.904	5.04	0.992	< 4.70	0.917	< 5.00	0.309	6.99	0.813	5.17	0.867	4.89	0.217	6.94	0.428	7.08	0.981	< 5.30	0.596	5.95		
